Source: article PMC4336329 (PLoS ONE, 2015)
Among all 310,000 compounds or so, about 2,200 (0.71%) showed an effect of 50% or more. Effects have a minus sign here. This is one part of the list.

These molecules were tested against human ether-à-go-go-related gene (hERG) potassium channel (human, UniProt Q12809) (assay: primary screen, population patch clamp on CHO cells stably expressing hERG).
Sequence of human ether-à-go-go-related gene (hERG) potassium channel (Q12809 whole entry, looked up): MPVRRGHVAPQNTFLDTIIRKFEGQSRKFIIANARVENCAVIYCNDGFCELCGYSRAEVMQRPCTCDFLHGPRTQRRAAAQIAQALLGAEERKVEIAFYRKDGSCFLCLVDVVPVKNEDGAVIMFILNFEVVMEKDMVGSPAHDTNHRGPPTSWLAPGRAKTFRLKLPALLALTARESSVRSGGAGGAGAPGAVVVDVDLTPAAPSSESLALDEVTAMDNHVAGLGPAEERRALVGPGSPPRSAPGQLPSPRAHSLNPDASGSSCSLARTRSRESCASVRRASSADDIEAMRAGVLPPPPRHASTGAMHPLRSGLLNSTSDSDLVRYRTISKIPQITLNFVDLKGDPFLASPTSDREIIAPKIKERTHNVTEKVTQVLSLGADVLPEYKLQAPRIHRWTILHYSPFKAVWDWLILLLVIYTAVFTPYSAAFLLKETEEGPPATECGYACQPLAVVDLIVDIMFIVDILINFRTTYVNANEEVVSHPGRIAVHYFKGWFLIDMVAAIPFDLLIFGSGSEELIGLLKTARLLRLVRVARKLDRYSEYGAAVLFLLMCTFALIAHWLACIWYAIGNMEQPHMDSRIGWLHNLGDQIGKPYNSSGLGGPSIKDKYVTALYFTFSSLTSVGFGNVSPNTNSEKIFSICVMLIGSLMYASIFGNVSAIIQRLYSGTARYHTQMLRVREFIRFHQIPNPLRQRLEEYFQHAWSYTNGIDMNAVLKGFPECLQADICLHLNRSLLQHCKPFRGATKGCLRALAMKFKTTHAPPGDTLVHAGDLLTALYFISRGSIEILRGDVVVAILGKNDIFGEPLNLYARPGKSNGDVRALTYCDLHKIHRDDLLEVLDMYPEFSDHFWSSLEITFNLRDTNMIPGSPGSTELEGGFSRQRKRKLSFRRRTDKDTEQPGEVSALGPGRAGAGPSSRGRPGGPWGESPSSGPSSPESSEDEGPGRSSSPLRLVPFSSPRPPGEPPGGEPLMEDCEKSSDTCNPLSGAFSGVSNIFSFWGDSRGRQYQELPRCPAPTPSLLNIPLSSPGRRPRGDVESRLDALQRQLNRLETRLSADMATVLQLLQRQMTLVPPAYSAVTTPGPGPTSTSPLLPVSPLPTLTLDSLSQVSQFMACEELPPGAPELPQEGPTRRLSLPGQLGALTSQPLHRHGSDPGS

| Structure (SMILES) | hERG current change (%, negative = inhibition) at 1uM [%] |
| --- | --- |
| CC(C)c1cc2cc3ccc(=O)oc3cc2o1 | 0.967 |
| COCCn1c(-c2cccs2)csc1=Nc1cccnc1 | 6.96 |
| Cc1ccc(NC(=O)COc2ccc(N3CC(C(N)=O)CC3=O)cc2)c(C)c1 (stereo not drawn) | 13.5 |
| O=C(COc1ccccc1)Nc1nc(-c2ccncc2)cs1 | 6.85 |
| CC(CC(=O)N1CCN(S(=O)(=O)c2ccc([N+](=O)[O-])cc2)CC1)c1ccccc1 (stereo not drawn) | -50.3 |
| COCCN(C(=O)COC(=O)c1cnc(C)cn1)c1c(N)n(Cc2ccccc2)c(=O)[nH]c1=O | 6.64 |
| COc1cccc(NC(=O)CSc2nnc(Cc3cccn3C)n2-c2ccc(F)cc2)c1 | 5.79 |
| Clc1ncn(CCOc2ccccc2)c1Cl | 12.4 |
| O=C(Cn1cc(C(=O)c2ccco2)c2ccccc21)NC1CC1 | 11.4 |
| CCCn1c(-c2ccncc2)n[nH]c1=S | 8.8 |
| Cc1cccnc1NC(=O)c1ccc(Cl)c(S(=O)(=O)N2CCCC2)c1 | 4.21 |
| O=S(=O)(Nc1cccc(-c2ccc(N3CCOCC3)nn2)c1)c1ccc(Cl)c(Cl)c1 | 2.81 |
| CC1CCN(c2nc3ccc(C(=O)N4CCN(Cc5ccccc5)CC4)cc3s2)CC1 | 6.29 |
| Cc1nc(NC(=O)CSC2=NCCS2)sc1C(=O)N(C)C | 10.8 |
| Cc1nn(-c2nnc(C)c(=O)[nH]2)c(C)c1SCC(=O)Nc1ccc(C(C)C)cc1 | 10.2 |
| O=c1c(Cl)c(Cl)cnn1Cc1ccc(F)cc1 | 0.484 |
| COc1ccc(C(=O)Nc2nc3ccccc3[nH]2)cc1S(=O)(=O)N1CCOCC1 | -29.8 |
| COC(=O)c1ccc(C(=O)Nc2cc(Cl)ccc2Cl)cc1NC(=O)c1ccc(N(C)C)cc1 | 16.1 |
| CC(C)CC(=O)NC(NC(=O)CC(C)C)c1cccc([N+](=O)[O-])c1 | 8.63 |

| Structure (SMILES) | hERG current change (%, negative = inhibition) at 1uM [%] |
| --- | --- |
| C=CCn1cc(Cl)c(=O)n(CC=C)c1=O | 8.78 |
| Cc1ccc(S(=O)(=O)NCCC(=O)OCC(=O)N(Cc2ccccc2)C(C)(C)C)cc1C | -0.298 |
| CCCCCCSc1ccc([C@@H]2[C@@H]3C(=O)N(C)C(=O)[C@@H]3[C@]3(C(=O)OC)CCCCN23)cc1OC.O=C(O)C(F)(F)F | 10.4 |
| O=C(NCc1ccccc1Cl)c1ccc2ccccc2n1 | 14.8 |
| CCOC(=O)CC(NC(=O)CCc1c(C)nc2nc(C)nn2c1C)c1ccc(C)cc1 (stereo not drawn) | 19.2 |
| CSc1c2c(nc3ncnn13)CCC2 | 6.12 |
| O=C(c1cc(Cl)nc2ccccc12)N1CCc2ccccc2C1 | 6.48 |
| CC(C)CCn1nnnc1C(c1ccccc1)N1CCN(C)CC1 (stereo not drawn) | 9.6 |
| O=C(c1ccc2c(c1)OCCO2)N1CCN(S(=O)(=O)c2c(F)cccc2F)CC1 | 10.6 |
| Cc1ccc(S(=O)(=O)N2CCC(C(=O)OC(C)C(=O)N3CCOCC3)CC2)cc1 (stereo not drawn) | 11.7 |
| O=C(Nc1ccncc1)C1CC(=O)N(c2ccc(F)cc2)C1 (stereo not drawn) | 10.7 |
| COc1ccc(OC)c(/C=N/NC(=O)CC(=O)NCc2ccccc2)c1 | 3.58 |
| CCOC(=O)CC/C(=N\NC(N)=O)c1ccc(OC)c(Cl)c1 | 1.8 |
| O=C(CSc1nc(-c2ccccc2)cs1)Nc1ccccc1[N+](=O)[O-] | 11.9 |
| S=c1[nH]nc(C2CCCCC2)n1/N=C/c1ccco1 | 5.74 |
| COc1ccc(C(=O)NCCn2ccc3ccccc32)c(OC)c1 | 9.11 |
| CCOC(=O)C(N)CSC1CC(=O)N(c2ccc(OCC)cc2)C1=O.Cl (stereo not drawn) | 5.66 |
| CCC(=O)Nc1cc(C(=O)OCC(=O)c2ccccc2Cl)ccc1C | 14.9 |
| O=S(=O)(NCc1csc(-c2cccs2)n1)c1cccc(C(F)(F)F)c1 | 8.31 |

| Structure (SMILES) | hERG current change (%, negative = inhibition) at 1uM [%] |
| --- | --- |
| Cc1ccc(-n2ncc3c2CCCC3NC(=O)CCCN2CCCC2=O)cc1C (stereo not drawn) | 1.27 |
| CNCc1ccccc1Sc1cccc(O)c1.O=C(O)/C=C\C(=O)O | 7.09 |
| Cc1cc(C)cc(OCC(=O)NNC(=O)c2ccccn2)c1 | 2.77 |
| O=C(COc1ccc(Cl)cc1)NC(=S)Nc1ccccc1N1CCOCC1 | 17.4 |
| O=C(c1ccc(F)cc1Cl)N1CCN(CCc2ccccc2)CC1 | -19.9 |
| CC1(C)CC(NC(=O)Cc2ccccc2)CC(C)(C)N1.Cl | 26.2 |
| COCc1ccc(C(=O)N2CCCC(Nc3ccc4c(c3)OCCO4)C2)o1 (stereo not drawn) | 8.17 |
| COC(=O)c1c(NC(=O)c2cccs2)sc2c1CCC(C)C2 (stereo not drawn) | 9.97 |
| COc1cc(NC(=O)[C@@H](NC(=O)N2CCn3c2nc2ccccc23)C(C)C)cc(OC)c1 | 12.4 |
| N#Cc1nc(COc2ccccc2)oc1N1CCCCCC1 | 0.979 |
| Cc1cccc(NC(=S)NC2CC3CCC(C2)N3Cc2ccco2)c1C (stereo not drawn) | 1.61 |
| O=C(Nc1ccccc1F)Nc1ccccc1OC(F)F | 6.45 |
| O=C(Cc1c(F)cccc1Cl)NCC(=O)OCc1ccccc1 | -0.898 |
| CCOC(=O)/C(C#N)=C\c1ccc2c(c1)OCO2 | 7.81 |
| CCCCNS(=O)(=O)c1ccc2nc(SCC(=O)Nc3cccc(F)c3)[nH]c2c1 | 6.86 |
| COc1ccc(OCCOC(=O)CN2C(=O)NC3(CCCC3)C2=O)cc1 | 15.8 |
| COc1ccccc1CNc1ccc(C(=O)O)cc1 | 9.98 |
| COc1cccc(CNC(=O)c2cccc(NC3=NC4CS(=O)(=O)CC4S3)c2)c1 (stereo not drawn) | 10.8 |
| COC(=O)/C=C/COc1ccccc1[N+](=O)[O-] | 13.4 |
